# Data from PubChem BioAssay (Tox21).
# Inconclusive means that the source gave no clear call. Such entries were picked first, then a sample of the others. Where the call is inconclusive, the potency comes from a doubtful curve fit. Active and inactive are the calls of the source. Unless noted, calls follow the shape of the dose curve; as a rule, active = well fitted curve in the direction sought with a large enough effect in the repeat runs; inconclusive = weak or mixed curves; inactive = no such curve, though single readings can be large; an effect the other way counts as inactive or inconclusive.
# Assays:
# [1] = A CellTox Green Cytotoxicity Assay to monitor cytotoxicity in HepG2 cells - 32 hour (AID 1224883); conditions: CellTox Green fluorescence; series mostly up to 76.8 µM; also: nearly all actives have a fitted effect of over 50% in size; as to cytotoxicity increase: % is scaled to controls: 0 for no effect and ±100 for the full control effect
# In short: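 Cells and non-lytic dye reagent are dispensed together (600 HepG2 cells/well) and incubated 5 h before DMSO compound transfer. Kinetic fluorescence is then recorded in the same wells during 40 h at 37 C.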
# [2] = A CellTox Green Cytotoxicity Assay to monitor cytotoxicity in HEK293 cells - 8 hour (AID 1224884); conditions: CellTox Green fluorescence; series mostly up to 76.8 µM; also: nearly all actives have a fitted effect of over 35% in size; as to cytotoxicity increase: % is scaled to controls: 0 for no effect and ±100 for the full control effect
# In short: (§1)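 Cells (HEK293, 600/well) and dye reagent are dispensed together. After 5 h at 37 C, 23 nL compound is pinned in. Plates stay at 37 C for 40 h with fluorescence read at 0h, 8h, 16h, 24h, 32h and 40h.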
# [3] = qHTS RealTime-Glo MT Cell Viability Assay in HepG2 cells - 16 hour (AID 1224885); conditions: RealTime-Glo luminescence; series mostly up to 76.8 µM; also: nearly all actives have a fitted effect of over 50% in size
# In short: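 HepG2 suspension premixed with RealTime-Glo reagents is plated at 600 cells per well and left 5 h at 37 C/5% CO2. Compounds in DMSO then go in, and bioluminescence reflecting viable cell number is recorded over 40 h.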
# [4] = qHTS RealTime-Glo MT Cell Viability Assay in HEK293 cells - 24 hour (AID 1224886); conditions: RealTime-Glo luminescence; series mostly up to 76.8 µM; also: nearly all actives have a fitted effect of over 50% in size
# In short: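 Reads taken at 0, 8, 16, 24, 32 and 40 h from the same wells. HEK293 cells (600/well) carried RealTime-Glo reagents from seeding, with compound added after a 5 h settle at 37 C.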
# [5] = qHTS RealTime-Glo MT Cell Viability Assay in HEK293 cells - 8 hour (AID 1224887); conditions: RealTime-Glo luminescence; series mostly up to 76.8 µM; also: nearly all actives have a fitted effect of over 50% in size
# In short: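 Real-time viability in HEK293: signal arises when living cells convert a prosubstrate for NanoLuc in the medium, so luminescence tracks viable cell number. Compound (23 nL, DMSO) added 5 h post-seeding; kinetic reads at 0–40 h, 37 C.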
# [6] = qHTS assay to identify small molecule antagonists of the androgen receptor (AR) signaling pathway using the MDA cell line in the presence of 0.5 nM R1881 - cell viability counter screen (AID 1259242); conditions: MDA-kb2 viability, CellTiter-Fluor protease fluorescence, 16 h; series mostly up to 92.4 µM; also: nearly all actives have a fitted effect of over 45% in size
# In short: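 Steps: plate MDA-kb2 cells, rest 5 hr at 37C without CO2; pin in compounds in DMSO; add R1881 to 0.5 nM final; incubate 16 hr; add CellTiter-Fluor, 30 min; read fluorescence.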
# [7] = biological target: Estrogen receptor (Homo sapiens) (UniProt P03372); assay: qHTS assay to identify small molecule antagonists of the estrogen receptor alpha (ER-alpha) signaling pathway using the BG1 cell line in the presence of 0.1 nM 17-beta-estradiol (AID 1259244); conditions: VM7Luc4E2 (BG1) ERE-luciferase, antagonist mode, 0.1 nM E2, 22 h; series mostly up to 92.4 µM; also: nearly all actives have a fitted effect of over 50% in size
# Sequence of UniProt P03372 (P03372 whole entry, looked up): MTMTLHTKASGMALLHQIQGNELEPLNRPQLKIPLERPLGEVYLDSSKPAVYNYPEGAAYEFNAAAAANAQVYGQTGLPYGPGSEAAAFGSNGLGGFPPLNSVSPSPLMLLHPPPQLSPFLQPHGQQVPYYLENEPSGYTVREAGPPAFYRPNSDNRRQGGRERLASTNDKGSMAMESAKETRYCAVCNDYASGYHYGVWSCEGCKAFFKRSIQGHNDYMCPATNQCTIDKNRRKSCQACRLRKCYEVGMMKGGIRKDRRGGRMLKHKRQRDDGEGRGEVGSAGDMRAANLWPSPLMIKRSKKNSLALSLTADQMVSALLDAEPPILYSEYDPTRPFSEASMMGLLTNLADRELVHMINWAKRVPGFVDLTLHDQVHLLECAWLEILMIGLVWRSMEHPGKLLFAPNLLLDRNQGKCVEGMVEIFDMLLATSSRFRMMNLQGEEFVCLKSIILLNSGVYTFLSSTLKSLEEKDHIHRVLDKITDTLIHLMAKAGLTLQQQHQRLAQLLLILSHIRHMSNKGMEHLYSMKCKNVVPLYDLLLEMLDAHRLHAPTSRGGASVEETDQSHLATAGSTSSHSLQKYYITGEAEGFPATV
# In short: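 Antagonist mode: compounds in DMSO are pinned onto VM7Luc4E2 reporter cells, 0.1 nM final 17beta-estradiol is added, and after 22 h at 37C luciferase luminescence is measured with ONE-Glo.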
# [8] = qHTS assay to identify small molecule antagonists of the sonic hedgehog signaling (Shh) pathway (AID 1259369; calls by dose curve; also: nearly all actives have a fitted effect of over 45% in size); conditions: NIH/3T3 Gli1-Luc reporter, Shh antagonist, luminescence 24 h; series mostly up to 92.4 µM
# In short: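 Cells are plated and held 4hr at 37 C, compounds (DMSO) are pinned in, conditioned medium is added to stimulate the pathway, and after 24hr luciferase reagent is added for 30min before luminescence is read.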
# [9] = qHTS assay to identify small molecule HDAC inhibitors (AID 1259364); conditions: HCT-116 HDAC-Glo I/II luminescence, 2 h; series mostly up to 92.4 µM;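 also: wild-type HCT-116 cells with endogenous class I/II HDAC activity; nearly all actives have a fitted effect of over 45% in size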
# In short: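 Cells (HCT-116, wild type) are seeded at 1,500 per well, incubated overnight, treated with compound in DMSO for 2 hr, then developed with HDAC-Glo I/II reagent for 30 min at room temperature.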
# [10] = qHTS assay to identify small molecule HDAC inhibitors - cell viability counter screen (AID 1259365); conditions: HCT-116 viability, CellTiter-Glo ATP luminescence, 2 h; series mostly up to 92.4 µM; also: nearly all actives have a fitted effect of over 50% in size
# In short: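 Measured quantity is CellTiter-Glo luminescence from wild-type HCT-116 cells after compound incubation of 2hr at 37C, 5% CO2; reagent developed 30min at room temperature.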
# [11] = qHTS assay to identify small molecule agonists of the sonic hedgehog signaling (Shh) pathway (AID 1259368; calls by dose curve; also: nearly all actives have a fitted effect of over 15% in size); conditions: NIH/3T3 Gli1-Luc reporter, luciferase, 24 h; series mostly up to 92.4 µM
# In short: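 Cells of a mouse NIH/3T3 clone stably expressing luciferase under the Gli1 transcriptional response element are exposed to test chemicals for 24 hr at 37 C. Pathway activation is detected as a rise in luminescence.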
# [12] = biological target: Estrogen receptor beta (Homo sapiens) (UniProt Q92731); assay: qHTS assay to identify small molecule agonists of the estrogen receptor beta (ER-beta) signaling pathway (AID 1259377; active = well fitted activation curve with a large enough effect in the signal ratio in the repeat runs, not every such curve was filed as active; inconclusive = weak or mixed curves, or effect the other way; the % refers to the signal ratio; as to activation: % is scaled to controls: 0 for no effect and ±100 for the full control effect); conditions: ER-beta-UAS-bla HEK293T, beta-lactamase FRET ratio, 16 h; for Potency: activation: at 92.4 µM (top of the series) unless noted
# Sequence of UniProt Q92731 (Q92731 whole entry, looked up): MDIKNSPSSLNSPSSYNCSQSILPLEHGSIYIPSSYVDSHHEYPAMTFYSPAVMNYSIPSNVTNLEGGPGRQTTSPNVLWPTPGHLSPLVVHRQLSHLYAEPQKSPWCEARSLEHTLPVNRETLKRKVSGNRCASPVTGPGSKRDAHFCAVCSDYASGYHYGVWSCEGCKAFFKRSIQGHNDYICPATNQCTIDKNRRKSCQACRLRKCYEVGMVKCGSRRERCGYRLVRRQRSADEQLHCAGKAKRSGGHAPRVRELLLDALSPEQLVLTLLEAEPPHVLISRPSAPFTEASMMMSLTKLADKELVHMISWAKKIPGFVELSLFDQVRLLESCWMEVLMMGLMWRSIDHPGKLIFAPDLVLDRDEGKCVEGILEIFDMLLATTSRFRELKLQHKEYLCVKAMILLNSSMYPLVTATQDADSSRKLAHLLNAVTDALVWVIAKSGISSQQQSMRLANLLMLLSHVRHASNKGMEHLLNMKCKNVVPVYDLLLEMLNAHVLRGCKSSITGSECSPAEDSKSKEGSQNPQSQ
# In short: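 Reporter cells (HEK293T, ER-beta-UAS-bla) receive compounds or DMSO after a 6 hr pre-incubation. They then incubate 16 hr at 37C/5% CO2, and fluorescence from LiveBLAzer B/G substrate is measured after 2 hours at room temperature.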
# [13] = qHTS assay to identify small molecule agonists of the sonic hedgehog signaling (Shh) pathway - cell viability counter screen (AID 1259366); conditions: NIH/3T3 Gli1-Luc viability, CellTiter-Fluor, 24 h; series mostly up to 92.4 µM; also: nearly all actives have a fitted effect of over 50% in size
# In short: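 In quantitative high-throughput format, 3T3 Gli1-Luc cells were exposed to compounds for 24hr and multiplexed for viability using CellTiter-Fluor, incubated 1hr at 37C before the fluorescence read.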
# [14] = qHTS assay to identify small molecule antagonists of the sonic hedgehog signaling (Shh) pathway - cell viability counter screen (AID 1259367); conditions: NIH/3T3 Gli1-Luc viability, CellTiter-Fluor, 24 h; series mostly up to 92.4 µM; also: nearly all actives have a fitted effect of over 55% in size
# In short: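 Viability was read by CellTiter-Fluor fluorescence in the same wells, reagent added 23 hr into compound treatment and incubated 1 hr at 37C. The 3T3 Gli1-Luc reporter cells (2,000/well) received conditioned medium after compound and ran 24 hr.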
# [15] = A CellTox Green Cytotoxicity Assay to monitor cytotoxicity in HEK293 cells - 16 hour (AID 1224888); conditions: CellTox Green fluorescence; series mostly up to 76.8 µM; also: nearly all actives have a fitted effect of over 35% in size
# In short: as §1
# [16] = qHTS assay to identify small molecule antagonists of the estrogen receptor alpha (ER-alpha) signaling pathway using the BG1 cell line in the presence of 0.1 nM 17-beta-estradiol - cell viability counter screen (AID 1259241); conditions: VM7Luc4E2 (BG1) viability, CellTiter-Fluor protease, 22 h, 0.1 nM estradiol agonist added; series mostly up to 92.4 µM; also: nearly all actives have a fitted effect of over 40% in size
# In short: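 In this screen, hormone-deprived VM7Luc4E2 cells were seeded at 4,000 per well, dosed with compound and 0.1 nM estradiol final, and incubated 22 hr at 37C and 5% CO2; fluorogenic live-cell protease signal reported viability.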
# [17] = biological target: Androgen receptor (Homo sapiens) (UniProt P10275); assay: qHTS assay to identify small molecule antagonists of the androgen receptor (AR) signaling pathway using the MDA cell line in the presence of 0.5 nM R1881 (AID 1259243); conditions: MDA-kb2 MMTV-luciferase, R1881 0.5 nM, 16 h; series mostly up to 92.4 µM; also: nearly all actives have a fitted effect of over 50% in size
# Sequence of UniProt P10275 (P10275 whole entry, looked up): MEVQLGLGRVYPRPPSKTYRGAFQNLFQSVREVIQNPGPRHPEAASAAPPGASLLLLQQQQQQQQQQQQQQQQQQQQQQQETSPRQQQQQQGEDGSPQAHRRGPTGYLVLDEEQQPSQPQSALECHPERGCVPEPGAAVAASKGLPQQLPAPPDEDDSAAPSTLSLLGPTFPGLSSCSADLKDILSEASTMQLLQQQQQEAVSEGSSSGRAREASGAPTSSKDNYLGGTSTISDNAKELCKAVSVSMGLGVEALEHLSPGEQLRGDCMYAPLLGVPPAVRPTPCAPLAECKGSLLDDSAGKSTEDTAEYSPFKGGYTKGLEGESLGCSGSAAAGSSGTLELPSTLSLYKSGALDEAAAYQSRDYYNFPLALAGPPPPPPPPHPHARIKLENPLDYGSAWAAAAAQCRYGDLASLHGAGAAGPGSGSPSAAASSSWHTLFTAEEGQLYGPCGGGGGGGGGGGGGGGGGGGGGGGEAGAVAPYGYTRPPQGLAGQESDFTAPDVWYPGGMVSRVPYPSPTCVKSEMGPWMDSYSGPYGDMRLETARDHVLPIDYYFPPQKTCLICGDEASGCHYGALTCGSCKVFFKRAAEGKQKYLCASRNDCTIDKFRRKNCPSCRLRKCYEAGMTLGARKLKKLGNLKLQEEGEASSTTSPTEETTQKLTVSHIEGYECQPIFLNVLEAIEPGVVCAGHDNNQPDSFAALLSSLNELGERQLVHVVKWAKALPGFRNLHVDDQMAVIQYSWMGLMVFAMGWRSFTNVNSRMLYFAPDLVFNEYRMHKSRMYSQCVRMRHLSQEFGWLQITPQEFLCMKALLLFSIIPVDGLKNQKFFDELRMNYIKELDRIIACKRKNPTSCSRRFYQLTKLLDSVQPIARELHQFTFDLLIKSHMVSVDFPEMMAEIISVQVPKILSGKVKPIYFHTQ
# In short: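 Stably transfected MDA-kb2 cells express luciferase from an MMTV promoter bearing both AR and GR response elements. Compounds plus 0.5 nM R1881 (final) were incubated 16 hr at 37C without CO2, then luminescence measured.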
# Potency is read from the fitted curve at half-maximal effect; tags tell the direction and shape of the fitted curve or compound fluorescence and quenching.
smiles,measurement,setting,value
O=C(O)CO,Potency,[1],"inconclusive: 61.6 µM [activator, single point]"
CCCCc1ccc2cccc(S(=O)(=O)O)c2c1,Potency,[1],"inconclusive: 57.5 µM [activator, partial curve, poor fit]"
CC(C)(C)c1cccc(O)c1,Potency,[1],"inconclusive: 54.9 µM [activator, single point]"
FC(F)(F)C(F)(F)C(F)(F)C(F)(F)CCI,Potency,[1],inactive
C[C@@H]1CN(c2c(F)c(N)c3c(=O)c(C(=O)O)cn(C4CC4)c3c2F)C[C@H](C)N1,cytotoxicity increase,[1],inactive: -7.06% [at 15.8 µM]
CCOCCOC(=O)/C=C/c1ccc(OC)cc1,Potency,[1],inactive
O=C(N[C@@H](c1ccccc1)[C@@H]1CCCCN1)c1cccc(C(F)(F)F)c1Cl,Potency,[1],"inconclusive: 38.9 µM [activator, partial curve, poor fit]"
same,Potency,[2],inactive
same,Potency,[3],"inconclusive: 43.6 µM [cytotoxic, partial curve]"
same,Potency,[4],active: 24.5 µM
same,Potency,[5],"inconclusive: 43.6 µM [cytotoxic, partial curve]"
same,Potency,[6],"inconclusive: 24.3 µM [cytotoxic, full curve]"
same,Potency,[7],"inconclusive: 68.6 µM [inhibitor, single point]"
same,Potency,[8],"inconclusive: 21.7 µM [inhibitor, full curve]"
Nc1cccc2c1CN(C1CCC(=O)NC1=O)C2=O (configuration not stated),Potency,[1],inactive
COC(=O)c1sccc1S(N)(=O)=O,Potency,[1],"inconclusive: 21.9 µM [activator, single point]"
CC(=O)OCCC1CCCCC1,Potency,[1],"inconclusive: 61.6 µM [activator, single point]"
CC(=O)/C=C/c1ccco1,Potency,[1],inactive
CCC(CO)(CO)[N+](=O)[O-],Potency,[1],"inconclusive: 54.9 µM [activator, single point]"
CCOC(=O)/C=C\C(=O)OCC,Potency,[1],"inconclusive: 54.9 µM [activator, partial curve, poor fit]"
CC(=O)Oc1c(C)c(C)c2c(c1C)CC[C@@](C)(CCC[C@H](C)CCC[C@H](C)CCCC(C)C)O2,Potency,[1],inactive
CCCC(=O)OCCc1ccccc1,Potency,[1],active: 43.6 µM
same,Potency,[2],active: 38.9 µM
Cc1cc(=O)n(-c2ccccc2)n1C,Potency,[1],"inconclusive: 21.9 µM [activator, partial curve, poor fit]"
same,Potency,[2],"inconclusive: 40 µM [activator, partial curve]"
same,Potency,[4],inactive
CCN(CC)CCCC(C)Nc1c2ccc(Cl)cc2nc2ccc(OC)cc12 (configuration not stated),Potency,[9],"inconclusive: 29.8 µM [inhibitor, partial curve, poor fit]"
same,Potency,[10],"inconclusive: 29.8 µM [rising, single point]"
CCCCOC(=O)c1ccc(O)cc1,Potency,[9],"inconclusive: 29.8 µM [inhibitor, partial curve]"
CC1C2CC(CC2C2CCCC(O)C2)C1(C)C (configuration not stated),Potency,[10],"inconclusive: 61.1 µM [cytotoxic, partial curve, poor fit]"
COc1ccc(-c2coc3cc(O)cc(O)c3c2=O)cc1,Potency,[11],"inconclusive: 2.19 µM [activator, partial curve]"
c1cc(N(CC2CO2)CC2CO2)ccc1Cc1ccc(N(CC2CO2)CC2CO2)cc1 (configuration not stated),Potency,[11],"inconclusive: 24.3 µM [activator, partial curve]"
O=S1(=O)OC(c2ccc(O)cc2)(c2ccc(O)cc2)c2ccccc21,activation,[12]; at 42.5 µM (top of the series),inactive: 1.86%
Nc1ccc(N=Nc2ccc(N)cc2)cc1,Potency,[1],inactive
same,Potency,[4],inactive
same,Potency,[13],"inconclusive: 21.7 µM [cytotoxic, partial curve]"
same,Potency,[14],"inconclusive: 13.7 µM [cytotoxic, partial curve]"
same,Potency,[8],"inconclusive: 17.2 µM [inhibitor, partial curve, poor fit]"
CC(C)COC(=O)c1ccc(O)cc1,Potency,[1],"inconclusive: 61.6 µM [activator, single point]"
same,Potency,[4],"inconclusive: 54.9 µM [cytotoxic, single point]"
same,Potency,[5],"inconclusive: 61.6 µM [cytotoxic, single point]"
same,Potency,[15],"inconclusive: 54.9 µM [activator, single point]"
same,Potency,[12],"inconclusive: 5.44 µM [activator, full curve]"
O=C1OC(=O)c2cc([N+](=O)[O-])ccc21,Potency,[1],inactive
same,Potency,[4],inactive
Nc1ccc(C(=O)O)cc1,Potency,[1],inactive
same,Potency,[4],inactive
same,Potency,[12],inactive
O=Nc1ccc(O)cc1,Potency,[1],inactive
same,Potency,[4],"inconclusive: 53.7 µM [cytotoxic, single point]"
same,Potency,[16],"inconclusive: 29.9 µM [cytotoxic, partial curve, poor fit]"
same,Potency,[6],inconclusive: 53.2 µM [cytotoxic]
same,Potency,[17],"inconclusive: 47.4 µM [inhibitor, partial curve]"
same,Potency,[13],"inconclusive: 67 µM [cytotoxic, partial curve, poor fit]"
same,Potency,[14],"inconclusive: 59.7 µM [cytotoxic, single point]"
same,Potency,[8],"inconclusive: 9.69 µM [inhibitor, partial curve, poor fit]"
same,Potency,[12],"inconclusive: 59.7 µM [activator, single point]"
